Measurements from patent publication US9023789B2, “Amylin analogs and pharmaceutical compositions thereof” (Novo Nordisk A/S, priority 2012, dated 2015).
At least one read-out could not be matched to a standard name with certainty. Numbered stars: 1 amine (or outer) side, 2 acyl side, 3 side chain; on linkers, the order of the positions; unused ones are H or OH. Bridge positions count the residues as written; N and C are the ends. Side chains are listed from the residue outwards. Peptide text beside a SMILES is read from it. * marks the point of attachment. C20 diacid = O=C(O)CCCCCCCCCCCCCCCCCCC(=O)*; γGlu = O=C(O)[C@H](CCC(=O)[*:2])N[*:1]; AEEA = NCCOCCOCC(=O)O

Experiment: ASSAY (III) ThT fibrillation assay for physical stability
Type: physicochemical
In short: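 Physical stability scored by ThT fluorescence (444 nm excitation, 485 nm emission) tracked every 20 min during 37 °C incubation with 960 rpm shaking, ThT at 1 μM final. Values are replicate means with SD at chosen times; HPLC against pramlintide standard gives initial and post-assay soluble concentrations.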
In the case of CC[C@H](C)[C@H](NC(=O)[C@H](C)NC(=O)CNC(=O)[C@H](Cc1ccccc1)NC(=O)[C@H](CC(N)=O)NC(=O)[C@@H]1CCCN1C(=O)[C@H](CO)NC(=O)[C@H](CO)NC(=O)[C@H](Cc1c[nH]cn1)NC(=O)[C@H](CCCNC(=N)N)NC(=O)[C@H](CC(C)C)NC(=O)[C@H](Cc1ccccc1)NC(=O)[C@H](CCC(=O)O)NC(=O)[C@H](C)NC(=O)[C@H](CC(C)C)NC(=O)[C@H](CCCNC(=N)N)NC(=O)[C@H](CCC(N)=O)NC(=O)[C@@H](NC(=O)[C@H](C)NC(=O)[C@@H]1CSSC[C@H](NC(=O)[C@H](CCCCN)NC(=O)CC[C@H](NC(=O)CCCCCCCCCCCCCCCCCCC(=O)O)C(=O)O)C(=O)N[C@@H](CC(N)=O)C(=O)N[C@@H]([C@@H](C)O)C(=O)N[C@@H](C)C(=O)N[C@@H]([C@@H](C)O)C(=O)N1)[C@@H](C)O)C(=O)N1CCC[C@H]1C(=O)N[C@@H](CO)C(=O)N1CCC[C@H]1C(=O)N[C@H](C(=O)N[C@@H](CC(N)=O)C(=O)N[C@H](C(=O)NCC(=O)N[C@@H](CO)C(=O)N[C@@H](CC(N)=O)C(=O)N[C@H](C(=O)N[C@@H](Cc1ccc(O)cc1)C(N)=O)[C@@H](C)O)C(C)C)[C@@H](C)O [Example 37] ({C20 diacid-γGlu}-KCNTATCATQRLAEFLRHSSPNFGAIPSPTNVGSNTY-NH2; disulfide 2-7 (inferred)), the “ThT pH 4.0 recovery (%)” value is reported as 98%. In the case of CC[C@H](C)[C@H](NC(=O)[C@H](C)NC(=O)CNC(=O)[C@H](Cc1ccccc1)NC(=O)[C@H](CC(N)=O)NC(=O)[C@@H]1CCCN1C(=O)[C@H](CO)NC(=O)[C@H](CO)NC(=O)[C@H](Cc1c[nH]cn1)NC(=O)[C@H](CCCNC(=N)N)NC(=O)[C@H](CC(C)C)NC(=O)[C@H](Cc1ccccc1)NC(=O)[C@H](CC(N)=O)NC(=O)[C@H](C)NC(=O)[C@H](CC(C)C)NC(=O)[C@H](CCCNC(=N)N)NC(=O)[C@H](CCC(N)=O)NC(=O)[C@@H](NC(=O)[C@H](C)NC(=O)[C@@H]1CSSC[C@H](NC(=O)[C@@H](N)CCCCNC(=O)COCCOCCNC(=O)CC[C@H](NC(=O)CCCCCCCCCCCCCCCCCCC(=O)O)C(=O)O)C(=O)N[C@@H](CC(N)=O)C(=O)N[C@@H]([C@@H](C)O)C(=O)N[C@@H](C)C(=O)N[C@@H]([C@@H](C)O)C(=O)N1)[C@@H](C)O)C(=O)N1CCC[C@H]1C(=O)N[C@@H](CO)C(=O)N[C@@H](CO)C(=O)N[C@H](C(=O)N[C@@H](CC(N)=O)C(=O)N[C@H](C(=O)NCC(=O)N[C@@H](CO)C(=O)N[C@@H](CCCNC(=N)N)C(=O)N[C@H](C(=O)N[C@@H](Cc1ccc(O)cc1)C(N)=O)[C@@H](C)O)C(C)C)[C@@H](C)O [Example 38], the “ThT pH 4.0 recovery (%)” value is reported as 67%. With CC[C@H](C)[C@H](NC(=O)[C@H](C)NC(=O)CNC(=O)[C@H](Cc1ccccc1)NC(=O)[C@H](CC(N)=O)NC(=O)[C@@H]1CCCN1C(=O)[C@H](CO)NC(=O)[C@H](CO)NC(=O)[C@H](Cc1c[nH]cn1)NC(=O)[C@H](CCCNC(=N)N)NC(=O)[C@H](CC(C)C)NC(=O)[C@H](Cc1ccccc1)NC(=O)[C@H](CC(N)=O)NC(=O)[C@H](C)NC(=O)[C@H](CC(C)C)NC(=O)[C@H](CCCNC(=N)N)NC(=O)[C@H](CCC(N)=O)NC(=O)[C@@H](NC(=O)[C@H](C)NC(=O)[C@@H]1CSSC[C@H](NC(=O)[C@H](CCCCN)NC(=O)CC[C@H](NC(=O)CCCCCCCCCCCCCCCCCCC(=O)O)C(=O)O)C(=O)N[C@@H](CC(N)=O)C(=O)N[C@@H]([C@@H](C)O)C(=O)N[C@@H](C)C(=O)N[C@@H]([C@@H](C)O)C(=O)N1)[C@@H](C)O)C(=O)N1CCC[C@H]1C(=O)N[C@@H](CO)C(=O)N[C@@H](CO)C(=O)N[C@H](C(=O)N[C@@H](CC(N)=O)C(=O)N[C@H](C(=O)NCC(=O)N[C@@H](CCCNC(=N)N)C(=O)N[C@@H](CC(N)=O)C(=O)N[C@H](C(=O)N[C@@H](Cc1ccc(O)cc1)C(N)=O)[C@@H](C)O)C(C)C)[C@@H](C)O [Example 39] ({C20 diacid-γGlu}-KCNTATCATQRLANFLRHSSPNFGAIPSSTNVGRNTY-NH2; disulfide 2-7) the “ThT pH 4.0 recovery (%)” value was 100%. In the case of CC[C@H](C)[C@H](NC(=O)[C@H](C)NC(=O)CNC(=O)[C@H](Cc1ccccc1)NC(=O)[C@H](CC(N)=O)NC(=O)[C@@H]1CCCN1C(=O)[C@H](CO)NC(=O)[C@H](CO)NC(=O)[C@H](Cc1c[nH]cn1)NC(=O)[C@H](CCCNC(=N)N)NC(=O)[C@H](CC(C)C)NC(=O)[C@H](Cc1ccccc1)NC(=O)[C@H](CC(N)=O)NC(=O)[C@H](C)NC(=O)[C@H](CC(C)C)NC(=O)[C@H](CCCNC(=N)N)NC(=O)[C@H](CCC(N)=O)NC(=O)[C@@H](NC(=O)[C@H](C)NC(=O)[C@@H]1CSSC[C@H](NC(=O)[C@H](CCCCN)NC(=O)CC[C@H](NC(=O)CCCCCCCCCCCCCCCCCCC(=O)O)C(=O)O)C(=O)N[C@@H](CC(N)=O)C(=O)N[C@@H]([C@@H](C)O)C(=O)N[C@@H](C)C(=O)N[C@@H]([C@@H](C)O)C(=O)N1)[C@@H](C)O)C(=O)N1CCC[C@H]1C(=O)N[C@@H](CO)C(=O)N[C@@H](CO)C(=O)N[C@H](C(=O)N[C@@H](CC(N)=O)C(=O)N[C@H](C(=O)NCC(=O)N[C@@H](Cc1c[nH]cn1)C(=O)N[C@@H](CC(N)=O)C(=O)N[C@H](C(=O)N[C@@H](Cc1ccc(O)cc1)C(N)=O)[C@@H](C)O)C(C)C)[C@@H](C)O [Example 40], the “ThT pH 4.0 recovery (%)” value is reported as 92%. With CC[C@H](C)[C@H](NC(=O)[C@H](C)NC(=O)CNC(=O)[C@H](Cc1ccccc1)NC(=O)[C@H](CC(N)=O)NC(=O)[C@@H]1CCCN1C(=O)[C@H](CO)NC(=O)[C@H](CO)NC(=O)[C@H](Cc1c[nH]cn1)NC(=O)[C@H](CCCNC(=N)N)NC(=O)[C@H](CC(C)C)NC(=O)[C@H](Cc1ccccc1)NC(=O)[C@H](CC(N)=O)NC(=O)[C@H](C)NC(=O)[C@H](CC(C)C)NC(=O)[C@H](CCCNC(=N)N)NC(=O)[C@H](CCC(N)=O)NC(=O)[C@@H](NC(=O)[C@H](C)NC(=O)[C@@H]1CSSC[C@H](NC(=O)[C@@H](N)CCCCNC(=O)COCCOCCNC(=O)CC[C@H](NC(=O)CCCCCCCCCCCCCCCCCCC(=O)O)C(=O)O)C(=O)N[C@@H](CC(N)=O)C(=O)N[C@@H]([C@@H](C)O)C(=O)N[C@@H](C)C(=O)N[C@@H]([C@@H](C)O)C(=O)N1)[C@@H](C)O)C(=O)N1CCC[C@H]1C(=O)N[C@@H](CO)C(=O)N[C@@H](CO)C(=O)N[C@H](C(=O)N[C@@H](CC(N)=O)C(=O)N[C@H](C(=O)NCC(=O)N[C@@H](CO)C(=O)N[C@@H](CC(N)=O)C(=O)N[C@H](C(=O)N[C@@H](Cc1ccc(O)cc1)C(N)=O)[C@@H](C)O)C(C)C)[C@@H](C)O [Example 41] the “ThT pH 4.0 recovery (%)” value was 4%. In the case of CC[C@H](C)[C@H](NC(=O)[C@H](C)NC(=O)CNC(=O)[C@H](Cc1ccccc1)NC(=O)[C@H](CC(N)=O)NC(=O)[C@@H]1CCCN1C(=O)[C@H](CO)NC(=O)[C@H](CO)NC(=O)[C@H](Cc1c[nH]cn1)NC(=O)[C@H](CCCNC(=N)N)NC(=O)[C@H](CC(C)C)NC(=O)[C@H](Cc1ccccc1)NC(=O)[C@H](CC(N)=O)NC(=O)[C@H](C)NC(=O)[C@H](CC(C)C)NC(=O)[C@H](CCCNC(=N)N)NC(=O)[C@H](CCC(N)=O)NC(=O)[C@@H](NC(=O)[C@H](C)NC(=O)[C@@H]1CSSC[C@H](NC(=O)[C@@H](N)CCCCNC(=O)COCCOCCNC(=O)CCCCCCCCCCCCCCCCCCC(=O)O)C(=O)N[C@@H](CC(N)=O)C(=O)N[C@@H]([C@@H](C)O)C(=O)N[C@@H](C)C(=O)N[C@@H]([C@@H](C)O)C(=O)N1)[C@@H](C)O)C(=O)N1CCC[C@H]1C(=O)N[C@@H](CO)C(=O)N[C@@H](CO)C(=O)N[C@H](C(=O)N[C@@H](CC(N)=O)C(=O)N[C@H](C(=O)NCC(=O)N[C@@H](CO)C(=O)N[C@@H](CC(N)=O)C(=O)N[C@H](C(=O)N[C@@H](Cc1ccc(O)cc1)C(N)=O)[C@@H](C)O)C(C)C)[C@@H](C)O [Example 43], the “ThT pH 4.0 recovery (%)” value is reported as 9%. In the case of CC[C@H](C)[C@H](NC(=O)[C@H](C)NC(=O)CNC(=O)[C@H](Cc1ccccc1)NC(=O)[C@H](CC(N)=O)NC(=O)[C@@H]1CCCN1C(=O)[C@H](CO)NC(=O)[C@H](CO)NC(=O)[C@H](Cc1c[nH]cn1)NC(=O)[C@H](CCCNC(=N)N)NC(=O)[C@H](CC(C)C)NC(=O)[C@H](Cc1ccccc1)NC(=O)[C@H](CC(N)=O)NC(=O)[C@H](C)NC(=O)[C@H](CC(C)C)NC(=O)[C@H](CCCNC(=N)N)NC(=O)[C@H](CCC(N)=O)NC(=O)[C@@H](NC(=O)[C@H](C)NC(=O)[C@@H]1CSSC[C@H](NC(=O)[C@H](CCCNC(=N)N)NC(=O)[C@@H](N)CCCCNC(=O)CC[C@H](NC(=O)CCCCCCCCCCCCCCCCCCC(=O)O)C(=O)O)C(=O)N[C@@H](CC(N)=O)C(=O)N[C@@H]([C@@H](C)O)C(=O)N[C@@H](C)C(=O)N[C@@H]([C@@H](C)O)C(=O)N1)[C@@H](C)O)C(=O)N1CCC[C@H]1C(=O)N[C@@H](CO)C(=O)N[C@@H](CO)C(=O)N[C@H](C(=O)N[C@@H](CC(N)=O)C(=O)N[C@H](C(=O)NCC(=O)N[C@@H](CO)C(=O)N[C@@H](Cc1c[nH]cn1)C(=O)N[C@H](C(=O)N[C@@H](Cc1ccc(O)cc1)C(N)=O)[C@@H](C)O)C(C)C)[C@@H](C)O [Example 44] (H-K([γGlu-C20 diacid])RCNTATCATQRLANFLRHSSPNFGAIPSSTNVGSHTY-NH2; disulfide 3-8), the “ThT pH 4.0 recovery (%)” value is reported as 81%. With CC[C@H](C)[C@H](NC(=O)[C@H](C)NC(=O)CNC(=O)[C@H](Cc1ccccc1)NC(=O)[C@H](CC(N)=O)NC(=O)[C@@H]1CCCN1C(=O)[C@H](CO)NC(=O)[C@H](CO)NC(=O)[C@H](Cc1c[nH]cn1)NC(=O)[C@H](CCCNC(=N)N)NC(=O)[C@H](CC(C)C)NC(=O)[C@H](Cc1ccccc1)NC(=O)[C@H](CC(N)=O)NC(=O)[C@H](C)NC(=O)[C@H](CC(C)C)NC(=O)[C@H](CCCNC(=N)N)NC(=O)[C@H](CCC(N)=O)NC(=O)[C@@H](NC(=O)[C@H](C)NC(=O)[C@@H]1CSSC[C@H](NC(=O)[C@H](CCCNC(=N)N)NC(=O)[C@@H](N)CCCCNC(=O)COCCOCCNC(=O)CC[C@H](NC(=O)CCCCCCCCCCCCCCCCCCC(=O)O)C(=O)O)C(=O)N[C@@H](CC(N)=O)C(=O)N[C@@H]([C@@H](C)O)C(=O)N[C@@H](C)C(=O)N[C@@H]([C@@H](C)O)C(=O)N1)[C@@H](C)O)C(=O)N1CCC[C@H]1C(=O)N[C@@H](CO)C(=O)N[C@@H](CO)C(=O)N[C@H](C(=O)N[C@@H](CC(N)=O)C(=O)N[C@H](C(=O)NCC(=O)N[C@@H](CO)C(=O)N[C@@H](Cc1c[nH]cn1)C(=O)N[C@H](C(=O)N[C@@H](Cc1ccc(O)cc1)C(N)=O)[C@@H](C)O)C(C)C)[C@@H](C)O [Example 45] (H-K([AEEA-γGlu-C20 diacid])RCNTATCATQRLANFLRHSSPNFGAIPSSTNVGSHTY-NH2; disulfide 3-8 (inferred)) the “ThT pH 4.0 recovery (%)” value was 87%.
